# In the supplement of paper PMC9174493:
# The list shows a part of the results. Single values of this set are uncertain. Values with irradiation are relative to irradiated vehicle.
# Tested on: A549-Dual
# Assay: NF-kB reporter (SEAP) activity, viability-corrected, relative to vehicle (fold change vs vehicle); higher = more activation of STING-IRF / NF-kB immune response reporter
# Conditions: 10 µM; irradiation: none
# 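Further: viability correction based on the alamar blue assay, with concentrations leaving 10% survival or less dropped.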
row,SMILES,NF-kB reporter
1,CC(C)C(=O)c1c(C(C)C)nn2ccccc12 [Ibudilast],0.959
2,CCN(CC)CCNC(=O)c1cc(Cl)c(N)cc1OC.Cl [Metoclopramide HCl],1.1
3,CC1(C)SC2C(NC(=O)C(C(=O)[O-])c3ccccc3)C(=O)N2C1C(=O)[O-].[Na+].[Na+] (stereo not given) [Carbenicillin disodium],1.04
4,Cl.O=S(=O)(c1cccc2cnccc12)N1CCCNCC1 [Fasudil (HA-1077) HCl],1
5,CC1(C(=O)O)CCC2(C)CCC3(C)C(=CC(=O)C4C5(C)CCC(O)C(C)(C)C5CCC43C)C2C1 (stereo not given) [Enoxolone],1.21
6,O=C([O][Ca][O]C(=O)C(O)C(O)C(O)C(O)C(O)CO)C(O)C(O)C(O)C(O)C(O)CO (stereo not given) [Calcium Gluceptate],0.881
7,C=C1CC/C=C(\C)CCC2C1CC2(C)C (stereo not drawn) [β-Caryophyllene],0.751
8,CCC(c1ccccc1)c1c(O)c2ccccc2oc1=O (stereo not given) [Phenprocoumon],0.953
9,O=C1CCc2ccc(OCCCCN3CCN(c4cccc(Cl)c4Cl)CC3)cc2N1 [Aripiprazole],0.823
10,CCC1(C)CC(=O)NC1=O (stereo not given) [Ethosuximide],0.595
11,CC(=O)Oc1c(C)c(C)c2c(c1C)CCC(C)(CCCC(C)CCCC(C)CCCC(C)C)O2 (stereo not given) [Vitamin E Acetate],0.955
12,CCCCN1CCCCC1C(=O)Nc1c(C)cccc1C.Cl (stereo not given) [Bupivacaine HCl],0.924
13,COc1ccnc(CS(=O)c2nc3cc(-n4cccc4)ccc3[n]2[Na])c1C (stereo not given) [Ilaprazole sodium],0.957
14,CSc1ccc2c(c1)N(CCC1CCCCN1C)c1ccccc1S2.Cl (stereo not given) [Thioridazine hydrochloride],1.38
15,CCCCCC(C)N (stereo not given) [2-Aminoheptane],0.806
16,CCCCOC(=O)c1ccc(O)cc1 [Butylparaben],1.04
17,CCCCCCCCCCCCCCC(=O)O [Pentadecanoic acid],0.804
18,CC(CCC(=O)O)C1CCC2C3CCC4CC(O)CCC4(C)C3CC(O)C12C (stereo not given) [Deoxycholic acid],0.622
19,OCCN1CCN(CCCN2c3ccccc3Sc3ccc(Cl)cc32)CC1 [Perphenazine],0.839
20,Cl.N=C(N)c1ccccc1 [Benzamidine HCl],0.676

row,SMILES,NF-kB reporter
1,O.O.O.O.[Li][O]C(=O)CC(O)(CC(=O)[O][Li])C(=O)[O][Li] [Citric acid trilithium salt tetrahydrate],0.612
2,C1CNCCN1 [Piperazine],0.857
3,CC1(Cn2ccnn2)C(C(=O)O)N2C(=O)CC2S1(=O)=O (stereo not given) [Tazobactam],0.879
4,CC1=C(/C=C/C(C)=C/C=C/C(C)=C/C=C/C=C(C)/C=C/C=C(C)/C=C/C2=C(C)CCCC2(C)C)C(C)(C)CCC1 [Beta Carotene],0.684
5,CCN(CC)CCOc1ccc2c(c1)C(=O)c1cc(OCCN(CC)CC)ccc1-2.Cl.Cl [Tilorone dihydrochloride],3.39
6,CCCCCCCN(CC)CCCC(O)c1ccc(NS(C)(=O)=O)cc1.CCCCCCCN(CC)CCCC(O)c1ccc(NS(C)(=O)=O)cc1.O=C(O)/C=C/C(=O)O (stereo not given) [Ibutilide Fumarate],0.897
7,CC(C)(C)NC(=O)NC(C(=O)N1CC2C(C1C(=O)NC(CC1CCC1)C(=O)C(N)=O)C2(C)C)C(C)(C)C (stereo not given) [Boceprevir],0.958
8,COc1ccc(NS(=O)(=O)c2ccc(N)cc2)nn1 [Sulfamethoxypyridazine],0.965
9,C[C@H](N)C(=O)O [L-Alanine],1.03
10,CN(Cc1ccc(C(C)(C)C)cc1)Cc1cccc2ccccc12 [Butenafine],0.908
11,COCCCOc1ccnc(CS(=O)c2nc3ccccc3[n]2[Na])c1C (stereo not given) [Rebeprazole sodium],0.912
12,CN(C)CCOC(C)(c1ccccc1)c1ccccn1.O=C(O)CCC(=O)O (stereo not given) [Doxylamine Succinate],1.35
13,NS(=O)(=O)Cc1noc2ccccc12 [Zonisamide],0.7
14,O=C(O)CSc1nnc(Br)n1-c1ccc(C2CC2)c2ccccc12 [Lesinurad],0.717
15,Oc1cc(O)c2c(c1)OC(c1ccc(O)c(O)c1)C(OC1(c3ccc(O)c(O)c3)Oc3cc(O)cc(O)c3C(O)C1O)C2 (stereo not given) [Proanthocyanidins],0.633
16,C=CC1(C)CC(OC(=O)CSCCN(CC)CC)C2(C)C(C)CCC3(CCC(=O)C32)C(C)C1O (stereo not given) [Tiamulin],0.963
17,COC(=O)OCOc1c2n(ccc1=O)N(C1c3ccccc3SCc3c1ccc(F)c3F)C1COCCN1C2=O (stereo not given) [Baloxavir marboxil],0.796
18,COc1cc(CNC(=O)CCCCCCC(C)C)ccc1O [Dihydrocapsaicin],0.482
19,CCCCC(=O)N(Cc1ccc(-c2ccccc2-c2nnn[nH]2)cc1)C(C(=O)O)C(C)C.CCOC(=O)C(C)CC(Cc1ccc(-c2ccccc2)cc1)NC(=O)CCC(=O)O.[Na+].[Na+].[Na+] (stereo not given) [Sacubitril/valsartan (LCZ696)],1.01
20,CCCCC(=O)OCC(=O)C1C(C)CC2C3CC(F)C4=CC(=O)C=CC4(C)C3(F)C(O)CC21C (stereo not given) [Diflucortolone valerate],0.505
